According to the supplement of paper PMC10126150:
Sequences with one replicate were seen in a single cluster, so their values are uncertain.

System: ATP
Assay: switch fluorescence ratio, 500 uM ATP over buffer (Cy3 cluster intensity, sum of 5 cycles each) (fold (ratio)); higher = stronger signal-on switching upon ATP binding; sequences stand for … in TCGTCGGCAGCGTCAGATGTGTATAAGAGACAGTTTTTTTTTTTTTTTTTTTTTTTTT…TC
Details: aptamer strand: ATP DNA aptamer (quencher-CACCTGGGGGAGTATTGCGGAGGAAGG + anchor), 100 nM annealed; ATP concentration: 500 uM; one replicate
Procedure, shortened: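 Imaging in selection buffer was followed by imaging after 15 min with 500 uM ATP at 22 °C, for Cy3-labelled switching-strand clusters annealed to 100 nM quencher-labelled ATP aptamer on a modified Illumina MiSeq flow-cell. Five of these buffer/ATP cycles ran, separated by NaOH stripping and re-annealing. The fluorescence ratio per cluster is summed target-cycle over summed buffer-cycle Cy3 intensity, averaged per switch-domain sequence; clusters outside 100-1000 RFU were removed.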
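Note: ATP exposure 15 min at 22 °C before imaging.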

| Sequence | switch fluorescence ratio |
| --- | --- |
| AATATAGGCA | 0.943 |
| AATATCACGT | 1.03 |
| AATATCGCTC | 1.02 |
| AATATGCGGA | 0.994 |
| AATATGGCGG | 0.985 |
| AATATGGTCA | 1 |
| AATATGGTCT | 1.04 |
| AATATGTGCT | 0.987 |
| AATATGTTGA | 0.996 |
| AATATTGCAT | 1.01 |
| AATCAAAACC | 1.02 |
| AATCACAAGG | 1.02 |
| AATCACCTGG | 1.05 |
| AATCACGCAG | 0.993 |
| AATCACTTTT | 1 |
| AATCAGGTG | 3.76 |
| AATCATGAGG | 1.02 |
| AATCCAACGG | 1.18 |
| AATCCATAGC | 1.05 |
| AATCCCAGTA | 0.99 |
| AATCCCCATT | 0.989 |
| AATCCCGTG | 1 |
| AATCCTAGGC | 1.04 |
| AATCCTAGGG | 0.952 |
| AATCGAACGG | 1.01 |
| AATCGAGAGT | 1.01 |

| Sequence | switch fluorescence ratio |
| --- | --- |
| AATCGAGTTC | 1.01 |
| AATCGATTGC | 0.979 |
| AATCGCACAC | 2.14 |
| AATCGCTACC | 1.13 |
| AATCGCTAGT | 0.989 |
| AATCGCTGTG | 1.04 |
| AATCGGAACA | 0.963 |
| AATCGGCCCG | 0.948 |
| AATCGGGGCA | 0.954 |
| AATCGGTGAC | 0.996 |
| AATCGTACTC | 1.11 |
| AATCGTCCAA | 1.05 |
| AATCGTCTAT | 1.02 |
| AATCGTGAAG | 0.949 |
| AATCGTTCAT | 1.01 |
| AATCGTTGCG | 0.985 |
| AATCGTTTAC | 1.03 |
| AATCTAAAAC | 1.03 |
| AATCTAGAAT | 1.03 |
| AATCTATAAG | 0.999 |
| AATCTCAGTA | 0.924 |
| AATCTCATCT | 1.02 |
| AATCTGCTCA | 1.01 |
| AATCTTAGGT | 1.13 |
| AATGAAACGT | 1.08 |
| AATGAAATAA | 0.976 |

| Sequence | switch fluorescence ratio |
| --- | --- |
| AATGAACCTT | 1.72 |
| AATGAAGGG | 1.03 |
| AATGAATCTA | 0.969 |
| AATGAATTT | 0.971 |
| AATGACAGC | 1.01 |
| AATGACGTTG | 1.01 |
| AATGACTACG | 1.02 |
| AATGATCCCC | 1.06 |
| AATGCCATGG | 1.03 |
| AATGCCTACG | 1 |
| AATGCGAGTG | 0.976 |
| AATGCGTACG | 1.01 |
| AATGCTGCCT | 1.05 |
| AATGCTGTCT | 1 |
| AATGGACTAT | 0.985 |
| AATGGCATC | 1.05 |
| AATGGGCACC | 0.978 |
| AATGGGTAAT | 0.986 |
| AATGGTAAAG | 1.02 |
| AATGGTGGCG | 0.949 |
| AATGGTGTGA | 1.01 |
| AATGGTTGGC | 1.05 |
| AATGGTTGTT | 0.995 |
| AATGTAATGT | 1.06 |
| AATGTCGTGT | 1.01 |
| AATGTGAGTC | 0.992 |

| Sequence | switch fluorescence ratio |
| --- | --- |
| AATGTGGTG | 0.966 |
| AATGTGTTAC | 1.05 |
| AATGTGTTCG | 1.02 |
| AATGTTCGCA | 0.991 |
| AATGTTGCCG | 1 |
| AATGTTGGCA | 1.05 |
| AATGTTTCCG | 0.995 |
| AATTAACCG | 1.03 |
| AATTAACG | 1.01 |
| AATTAATTCA | 0.97 |
| AATTACGCCA | 1.25 |
| AATTACGGAG | 1.01 |
| AATTACTGA | 1.11 |
| AATTAGATAA | 0.963 |
| AATTAGCATA | 0.992 |
| AATTAGGGTT | 0.955 |
| AATTAGTATC | 0.966 |
| AATTCCAGT | 1.01 |
| AATTCCGAAC | 1.19 |
| AATTCGTTAG | 0.96 |
| AATTCTCGGA | 1.02 |
| AATTCTTCAA | 1.04 |
| AATTGAGCAT | 0.979 |
| AATTGCAATA | 1.32 |
| AATTGCCCAT | 1.02 |
| AATTGCCGTT | 1.05 |

| Sequence | switch fluorescence ratio |
| --- | --- |
| AATTGCTCTG | 0.968 |
| AATTGGGTC | 1.02 |
| AATTGGTCAG | 0.968 |
| AATTGGTTTG | 0.957 |
| AATTGTATTC | 1.07 |
| AATTGTGCAC | 1.02 |
| AATTGTTTT | 1.02 |
| AATTTCAGTA | 1 |
| AATTTCGTCG | 0.979 |
| AATTTCTGCG | 0.988 |
| AATTTGACTA | 1.02 |
| AATTTGACTT | 0.957 |
| AATTTGATTT | 1 |
| AATTTGGTGG | 0.97 |
| AATTTGTCA | 1.01 |
| AATTTGTTAA | 0.989 |
| AATTTTAATA | 1.02 |
| AATTTTCATG | 1 |
| AATTTTGTCC | 1 |
| AATTTTGTGC | 1.03 |
| ACAAAAAGGA | 1.03 |
| ACAAAACGAG | 1.06 |
| ACAAAACGTA | 0.984 |
| ACAAACGATC | 1.17 |
| ACAAAGGCC | 1.03 |
| ACAAATCTCT | 1.06 |

| Sequence | switch fluorescence ratio |
| --- | --- |
| ACAACATATT | 0.986 |
| ACAACCACCA | 1.14 |
| ACAACGCATG | 1.37 |
| ACAAGACTAT | 1.13 |
| ACAAGGCCGG | 1 |
| ACAAGGCCGT | 1.07 |
| ACAAGGGGAG | 1.07 |
| ACAAGGTAAG | 0.988 |
| ACAAGTTGG | 0.973 |
| ACAATAGACG | 1.01 |
| ACAATATGCC | 1.1 |
| ACAATCCGAG | 1.09 |
| ACAATCTGCT | 1.03 |
| ACAATGTGAG | 1.03 |
| ACAATTATG | 0.983 |
| ACAATTTTAG | 0.973 |
| ACACAAAACC | 1.05 |
| ACACAGGAC | 2.1 |
| ACACAGGCAA | 0.942 |
| ACACAGGGTG | 1.04 |
| ACACATTCG | 1 |
| ACACATTTTG | 1.01 |
| ACACGAGCTT | 1.01 |
| ACACGCCGTT | 1.09 |
| ACACGCTCAT | 1.05 |
| ACACGGGCAC | 1.32 |

| Sequence | switch fluorescence ratio |
| --- | --- |
| ACACGTAAAT | 1.56 |
| ACACGTATGG | 1 |
| ACACGTCATA | 1.23 |
| ACACGTCTCG | 1.02 |
| ACACGTGGTA | 0.995 |
| ACACGTTATT | 1.21 |
| ACACTATGCG | 1.01 |
| ACACTTATGA | 1.07 |
| ACACTTATGT | 0.989 |
| ACACTTGTCG | 1.07 |
| ACACTTTACC | 1.43 |
| ACAGAACAAT | 1.11 |
| ACAGACGTGA | 1.24 |
| ACAGAGCAGT | 1.53 |
| ACAGATGTAT | 1.04 |
| ACAGCCTAAG | 1.06 |
| ACAGCGGTAC | 3.62 |
| ACAGCTAATT | 1.03 |
| ACAGCTCTTG | 0.969 |
| ACAGCTGAGG | 0.975 |
| ACAGGCGTTG | 0.967 |
| ACAGGCTTGG | 1 |
| ACAGGGACGA | 1.04 |
| ACAGGGTGAG | 1.04 |
| ACAGGTCGGA | 1.03 |
| ACAGTACTGT | 0.961 |

| Sequence | switch fluorescence ratio |
| --- | --- |
| ACAGTAGGAG | 1.01 |
| ACAGTCT | 1.01 |
| ACAGTGTTTG | 0.966 |
| ACATAAGTGT | 0.995 |
| ACATAATAAC | 1.02 |
| ACATACGGGT | 1.32 |
| ACATAGAGCG | 1.06 |
| ACATAGAGT | 1 |
| ACATAGGGGA | 1.06 |
| ACATAGGGTC | 0.981 |
| ACATAGTTCT | 1.06 |
| ACATATAGTC | 1.06 |
| ACATATCGAA | 1.07 |
| ACATATTAGA | 1.06 |
| ACATCATAAC | 0.984 |
| ACATCATAAT | 1.01 |
| ACATCATC | 1.04 |
| ACATCCACTA | 1.2 |
| ACATCGCTTA | 1.12 |
